Here are results for 14 molecules from PMC12136788.

The list shows a part of the results.

B1: chr1:23854467:23854568:-|CDS|ENSG00000179163|unk|total|mutant (ssRNA)
RNA: GGGAGUUCUACAGUCCGACGAUCAAGUCAAGUGGUUUUACUCCUCAUGACCAAAUAUUCUUUCCCUCCUCCGGAUGAGGUGGCCGUAAAUGACCGAUGGGGUCAGAACUGUUCCUGUCACCAUGGAGGAUACUAUAACUGUGACAACAGAGGAUUGAGCAUCA
B2: chr10:128103381:128103482:-|CDS|ENSG00000148773|msi1|FALSE|unique (ssRNA)
RNA: GGGAGUUCUACAGUCCGACGAUCAACUGGCAGCAGGAGACGGCCAAGAGCACCCAGGGAAAGUGCCCAAGCCAUAGAAGACCUAGCUGGCUUCAAAGACCCAGCAGCAGGUCACACUGAAGAAUCAAUGACUGAUGACAAAACCAACAGAGGAUUGAGCAUCA
B3: chr1:235182574:235182675:-|CDS|ENSG00000054267|unk|total|mutant (ssRNA)
RNA: GGGAGUUCUACAGUCCGACGAUCUUUGACCAACAACAGAAAUGAUCUUAUUUCAAAGGAGGAACAGAACAGUUCAUCUUUGCCCGAAGAAAACAAAGUUCAUGCAGAUUUGGUAAUAUCCAAACCAGUGUCAAAAUCUCCAGACAACAGAGGAUUGAGCAUCA
B4: ENSG00000136451:be:win_1701|3pUTR|ENSG00000136451|bound_else_gene|NA|bound_elsewhere_windowed (ssRNA)
RNA: GGGAGUUCUACAGUCCGACGAUCUUUCUCCAAUUUGGCUGGGAUUAUUCAAAGUAGGGUGUGUAUGUAACUUAUCACUGGACCACUUUAGUUUAAUCAGAAAUUCCUUUUAGCUGACAACAUUGCUUAAACAGGAUAGUAGUUCAACAGAGGAUUGAGCAUCA
B5: chr14:106235063:106235368:-|CDS|ENSG00000211947|control|control|control (ssRNA)
RNA: GGGAGUUCUACAGUCCGACGAUCUGGGUCCGCCAGGCUCCAGGGAAGGGGCUGGAGUGGGUCUCAUCCAUUAGUAGUAGUAGUAGUUACAUAUACUACGCAGACUCAGUGAAGGGCCGAUUCACCAUCUCCAGAGACAACGCCCAACAGAGGAUUGAGCAUCA
B6: chr12:32755127:32755228:-|CDS|ENSG00000139131|unk|FALSE|unique (ssRNA)
RNA: GGGAGUUCUACAGUCCGACGAUCCUUCUAUUACCUCUUCCAGCGUUAUGGAUGCAGGGUCCAGCUGGGCGGAUCUGAUCAACUAGGCAACAUCAUGUCCGGAUAUGAGUUCAUCAACAAGUAAGUGCCUUUAAACCUUGGGGACAACAGAGGAUUGAGCAUCA
B7: chr6:125978377:125978478:+|3pUTR|ENSG00000111911|unk|FALSE|unique (ssRNA)
RNA: GGGAGUUCUACAGUCCGACGAUCAAUUUUGCCUCUAAUAACAUAAAGGGGGAAGAAACAUAAAGUGGUUCUCUUAAUAAAACUAGCAGAAAAUGUUGCUUUAUGGCAUGUUUUUGUAUCAAAGAGAAAUCAGAGGUUAAACUUCAACAGAGGAUUGAGCAUCA
B8: chr18:62902975:62903076:+|CDS|ENSG00000081913|unk|total|mutant (ssRNA)
RNA: GGGAGUUCUACAGUCCGACGAUCAGUGGACUUUCUACAGCAUGUUACUCAGCUUGACCUACGAGACAAUAAGCUUGGUGAUCCCGAUGCUAUGAUUUUCAACAACAUUGAAGUUUUACACUGUGAAAGGAAUCAACUGGUCACCAACAGAGGAUUGAGCAUCA
B9: chr17:19383441:19384461:-|three_prime_utr|ENSG00000166482|control|control|control (ssRNA)
RNA: GGGAGUUCUACAGUCCGACGAUCUACACCUGAAGUUACACUGCCAGCAGUUCCCCAGGCCUCUUCCGAGAGGCACAUGGUUCUAGCCUGGACCUGGCUGGGCUCCAUGAGAAUGAGUUGCCUCCAACCUGUCCCAACAGCUGACAACAGAGGAUUGAGCAUCA
B10: chr8:9779869:9779970:+|3pUTR|ENSG00000173273|msi1|FALSE|unique (ssRNA)
RNA: GGGAGUUCUACAGUCCGACGAUCGGAAUUUCUAGCUUUUCAAGCAGCAUAAGUAGAAUCAACAUUAGGAUGUUUUCAUGAAAUAGCAUCCUUAUACUUCUUUGAGCUUGAUGUUAGUGGCUAGACUGAUUUCCCUUUGCUCUCCAACAGAGGAUUGAGCAUCA
B11: ENSG00000142156:stop:overlap|stop_codon|ENSG00000142156|stop_codon|NA|stop_codon (ssRNA)
RNA: GGGAGUUCUACAGUCCGACGAUCACCAGGCCCUGCUCCGCGGUGUCUUCCACCAGACAGUCUCCAGGAAGGUGGCGCUGGGCUAGCCCACCCUGCACGCCGGCACCAAACCCUGUCCUCCCACCCCUCCCCACUCAUCACUAACAACAGAGGAUUGAGCAUCA
B12: chr14:103519669:103519777:-|3pUTR|ENSG00000166165|unk|FALSE|unique (ssRNA)
RNA: GGGAGUUCUACAGUCCGACGAUCCUGAUGUUCGCCGUCUGGCGAGCCCUUAGCCUUGCUGUAGAGACUUCCGUCACCCUUGGUAGAGUUUAUUUUUUUGAUGGCUAAGAUACUGCUGAUGCUGAAAUAAACUAGGGUUUUGGCCAACAGAGGAUUGAGCAUCA
B13: chr9:113264340:113264441:+|3pUTR|ENSG00000136868|msi1|FALSE|unique (ssRNA)
RNA: GGGAGUUCUACAGUCCGACGAUCAAAGUCUGCAUUUGAUAUAAUGCCUUAAUUACUGGGUCUACAAUUAAUGUUGACUGUUUUAGAUUGUAAGCUCCUGGAGAGCAGUAUUGCUGUAGUAGGAAUGUUUUAACAGUGUCAUAUCAACAGAGGAUUGAGCAUCA
B14: chr15:69271217:69271318:+|3pUTR|ENSG00000138604|msi1|FALSE|bound_elsewhere (ssRNA)
RNA: GGGAGUUCUACAGUCCGACGAUCGCAACAGCAAGUUGAUUUCUUGUGAUCCCAGAAUUUUCUAAGAGGAUGAGUUGAAUCUAUAGCAGCAUUGUCAGUACAGACCAGUGGUUCUCAAACUUUAAAAUGCCUCAGCAUCACUUGCAACAGAGGAUUGAGCAUCA

For the test, the target named is T1, UNK ZnF1-6 (called full-length) (human, UniProt Q9C0B0 30-357).
T1 sequence: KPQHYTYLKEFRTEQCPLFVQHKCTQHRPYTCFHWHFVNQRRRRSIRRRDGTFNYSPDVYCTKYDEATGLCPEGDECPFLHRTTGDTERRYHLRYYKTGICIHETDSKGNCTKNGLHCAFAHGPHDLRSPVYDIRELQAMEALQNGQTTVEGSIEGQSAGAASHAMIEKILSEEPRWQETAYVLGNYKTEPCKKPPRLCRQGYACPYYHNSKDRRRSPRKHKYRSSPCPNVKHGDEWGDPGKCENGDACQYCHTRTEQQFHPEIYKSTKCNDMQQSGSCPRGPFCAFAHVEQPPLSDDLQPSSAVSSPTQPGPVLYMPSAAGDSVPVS
Kind of test: nsRBNS (natural sequence RNA bind-n-seq); RBNS binding buffer (assumed for nsRBNS): 25 mM Tris pH 7.5, 150 mM KCl, 3 mM MgCl2, 0.01% Triton X-100, 500 ug/ml BSA, 20 U/ml SUPERase-In, 4 C; UNK is unkempt and MSI1 is Musashi-1; names of the RNAs are library labels; protein concentration not given here; high values mean tight binding.
Molecule B1 gave a binding signal of 0.488 enrichment R.

B2 displayed a binding signal of 0.741 enrichment R.

Take B3: the binding signal amounted to 0.182 enrichment R. On to B4, for which the binding signal was determined as 1.31 enrichment R.

B5 returned a binding signal of 1.06 enrichment R.

The molecule B6 registered a binding signal of 0.612 enrichment R. With B7, the binding signal is 0.386 enrichment R.

Regarding B8, the binding signal came out at 0.322 enrichment R.

For B9, the binding signal was 0.652 enrichment R. Take B10: the binding signal turned out to be 0.353 enrichment R. Take B11: the binding signal worked out at 0.516 enrichment R. B12 registered a binding signal of 0.722 enrichment R.

B13: the binding signal was found to be 1.72 enrichment R. B14: the binding signal worked out at 0.349 enrichment R.
